From a collection of fitness landscapes (doi:10.1126/science.1257360)
The other results are listed elsewhere or left out.

B1: PhoQ; a variant is named by its letters at X, in order, P23837 (parent)
chain: MKKLLRLFFPLSLRVRFLLATAAVVLVLSLAYGMVALIGYSVSFDKTTFRLLRGESNLFYTLAKWENNKLHVELPENIDKQSPTMTLIYDENGQLLWAQRDVPWLMKMIQPDWLKSNGFHEIEADVNDTSLLLSGDHSIQQQLQEVREDDDDAEMTHSVAVNVYPATSRMPKLTIVVVDTIPVELKSSYMVWSWFIYVLSANLLLVIPLLWVAAWWSLRPIEALAKEVRELEEHNRELLNPATTRELTSLVRNLNRLLKSERERYDKYRTTLTDLTHSLKTPLXXLQXXLRSLRSEKMSVSDAEPVMLEQISRISQQIGYYLHRASMRGGTLLSRELHPVAPLLDNLTSALNKVYQRKGVNISLDISPEISFVGEQNDFVEVMGNVLDNACKYCLEFVEISARQTDEHLYIVVEDDGPGIPLSKREVIFDRGQRVDTLRPGQGVGLAVAREITEQYEGKIVAGESMLGGARMEVIFGRQHSAPKDE

Variants of: B1
Assay: enrichment ratio after two sorts for PhoP signalling (ratio (wild type AVST 3.29)); higher = more functional
Conditions: with PhoP (E. coli)

| Variant | enrichment ratio |
| --- | --- |
| FSPA | ≤ 0.25 |
| NLKV | ≤ 0.25 |
| FKFW | ≤ 0.25 |
| DYTI | ≤ 0.25 |
| PPWP | ≤ 0.25 |
| GPQY | ≤ 0.25 |
| NIWN | ≤ 0.25 |
| MRFL | ≤ 0.25 |
| DKPD | ≤ 0.25 |
| HSSQ | ≤ 0.25 |
| AFGS | ≤ 0.25 |
| LYFG | ≤ 0.25 |
| IKGG | ≤ 0.25 |
| LDAG | ≤ 0.25 |
| GTTN | ≤ 0.25 |
| PTSE | ≤ 0.25 |
| NDVH | ≤ 0.25 |
| KTNG | ≤ 0.25 |
| QKFL | 5.14 |
| RPVA | ≤ 0.25 |
| AILQ | 13.6 |
| FKID | ≤ 0.25 |
| VHGL | ≤ 0.25 |
| TYTP | ≤ 0.25 |
| QPSH | ≤ 0.25 |

| Variant | enrichment ratio |
| --- | --- |
| HRYH | ≤ 0.25 |
| LPHE | ≤ 0.25 |
| VQSK | ≤ 0.25 |
| LDCR | ≤ 0.25 |
| PFLM | ≤ 0.25 |
| PDHS | ≤ 0.25 |
| PHTQ | ≤ 0.25 |
| ERFT | ≤ 0.25 |
| NRIC | ≤ 0.25 |
| ARFA | ≤ 0.25 |
| NTQP | ≤ 0.25 |
| SCQP | ≤ 0.25 |
| HNQY | ≤ 0.25 |
| WNTY | ≤ 0.25 |
| HIEP | ≤ 0.25 |
| NCCR | ≤ 0.25 |
| ASMY | 8.56 |
| PRIL | ≤ 0.25 |
| SMHA | ≤ 0.25 |
| QLRG | ≤ 0.25 |
| ILRE | ≤ 0.25 |
| YSDQ | ≤ 0.25 |
| RAHL | ≤ 0.25 |
| IKIP | ≤ 0.25 |
| FYMH | ≤ 0.25 |

| Variant | enrichment ratio |
| --- | --- |
| YYCS | ≤ 0.25 |
| EPND | ≤ 0.25 |
| QWAT | ≤ 0.25 |
| MWIH | ≤ 0.25 |
| PFQI | ≤ 0.25 |
| NWDI | ≤ 0.25 |
| FAEA | ≤ 0.25 |
| LSNT | ≤ 0.25 |
| MLHG | ≤ 0.25 |
| LSVF | ≤ 0.25 |
| LRGQ | ≤ 0.25 |
| MRGC | ≤ 0.25 |
| YAAH | ≤ 0.25 |
| YFWS | ≤ 0.25 |
| FQPR | ≤ 0.25 |
| VVQM | ≤ 0.25 |
| LILG | ≤ 0.25 |
| WREN | ≤ 0.25 |
| LKPT | ≤ 0.25 |
| PRQN | ≤ 0.25 |
| DTRL | ≤ 0.25 |
| VCIP | ≤ 0.25 |
| MGQS | ≤ 0.25 |
| IMKE | ≤ 0.25 |
| IGGP | ≤ 0.25 |

| Variant | enrichment ratio |
| --- | --- |
| SMHV | ≤ 0.25 |
| FNAR | ≤ 0.25 |
| NGNM | ≤ 0.25 |
| PRYE | ≤ 0.25 |
| AVGS | 0.537 |
| QIYQ | 3.24 |
| KYYE | ≤ 0.25 |
| LEDM | ≤ 0.25 |
| RRLD | ≤ 0.25 |
| VEFV | 2.44 |
| SHKT | ≤ 0.25 |
| VWFW | ≤ 0.25 |
| LFTV | ≤ 0.25 |
| MEQG | ≤ 0.25 |
| YDWQ | ≤ 0.25 |
| EMLN | ≤ 0.25 |
| HNEQ | ≤ 0.25 |
| LCRG | ≤ 0.25 |
| EQPY | ≤ 0.25 |
| DDSI | ≤ 0.25 |
| MKNC | ≤ 0.25 |
| TAKV | ≤ 0.25 |
| HLDF | ≤ 0.25 |
| STFM | ≤ 0.25 |
| VQVT | ≤ 0.25 |

| Variant | enrichment ratio |
| --- | --- |
| PQMH | ≤ 0.25 |
| RSNT | ≤ 0.25 |
| PKSG | ≤ 0.25 |
| AFSA | ≤ 0.25 |
| DSKT | ≤ 0.25 |
| VRWS | ≤ 0.25 |
| PTPD | ≤ 0.25 |
| TSLY | 6.84 |
| VRTM | ≤ 0.25 |
| CFCM | ≤ 0.25 |
| VWYL | ≤ 0.25 |
| RMWP | ≤ 0.25 |
| IEGA | ≤ 0.25 |
| HCIW | ≤ 0.25 |
| NNKD | ≤ 0.25 |
| EEGV | ≤ 0.25 |
| PSIF | ≤ 0.25 |
| AHAN | ≤ 0.25 |
| QPYN | ≤ 0.25 |
| GFAL | ≤ 0.25 |
| VWND | ≤ 0.25 |
| YRPH | ≤ 0.25 |
| YKRI | ≤ 0.25 |
| MIFW | ≤ 0.25 |
| YHCM | ≤ 0.25 |

| Variant | enrichment ratio |
| --- | --- |
| KNMV | ≤ 0.25 |
| AHTQ | ≤ 0.25 |
| LLMW | ≤ 0.25 |
| ETQW | ≤ 0.25 |
| RIHF | ≤ 0.25 |
| FLHI | ≤ 0.25 |
| YDSI | ≤ 0.25 |
| IIAW | ≤ 0.25 |
| FCIR | ≤ 0.25 |
| DHTN | ≤ 0.25 |
| LKAK | ≤ 0.25 |
| WRCL | ≤ 0.25 |
| IWEI | ≤ 0.25 |
| PVYH | ≤ 0.25 |
| MRKP | ≤ 0.25 |
| RYMK | ≤ 0.25 |
| WRLC | ≤ 0.25 |
| TAVW | ≤ 0.25 |
| KKFW | ≤ 0.25 |
| ISMP | ≤ 0.25 |
| QIEI | ≤ 0.25 |
| VDVG | ≤ 0.25 |
| NMAI | ≤ 0.25 |
| HSKK | ≤ 0.25 |
| FDNN | ≤ 0.25 |

| Variant | enrichment ratio |
| --- | --- |
| FPLY | ≤ 0.25 |
| RAPD | ≤ 0.25 |
| WNQP | ≤ 0.25 |
| MSHM | 22 |
| FFTL | ≤ 0.25 |
| DCDM | ≤ 0.25 |
| SIDA | ≤ 0.25 |
| RKQG | ≤ 0.25 |
| TFHD | ≤ 0.25 |
| TTWA | ≤ 0.25 |
| LERS | ≤ 0.25 |
| LPDE | ≤ 0.25 |
| FNAL | ≤ 0.25 |
| EITV | ≤ 0.25 |
| SVSQ | 13.4 |
| MDSW | ≤ 0.25 |
| YACE | ≤ 0.25 |
| PAHP | ≤ 0.25 |
| LVNG | ≤ 0.25 |
| YDNL | ≤ 0.25 |
| KKFG | ≤ 0.25 |
| KMNE | ≤ 0.25 |
| PHTA | ≤ 0.25 |
| VTWA | ≤ 0.25 |
| LQWM | ≤ 0.25 |

| Variant | enrichment ratio |
| --- | --- |
| SVKL | ≤ 0.25 |
| VYVQ | ≤ 0.25 |
| WMYT | ≤ 0.25 |
| RHQQ | ≤ 0.25 |
| APRG | ≤ 0.25 |
| RMNI | ≤ 0.25 |
| KKSY | ≤ 0.25 |
| FVAS | ≤ 0.25 |
| IIIS | ≤ 0.25 |
| DEYL | ≤ 0.25 |
| DLTW | ≤ 0.25 |
| KRHS | ≤ 0.25 |
| KCVC | ≤ 0.25 |
| HNAF | ≤ 0.25 |
| KRYK | ≤ 0.25 |
| DLKW | ≤ 0.25 |
| PHPI | ≤ 0.25 |
| PTGK | ≤ 0.25 |
| TVPF | ≤ 0.25 |
| MGVP | ≤ 0.25 |
